# Measured values: publication PMC4336329 (PLoS ONE, 2015)
# Screen size: about 310,000 compounds; about 2,200 (0.71%) showed an effect of 50% or more. The effect is printed as a negative number. Some of the results follow.
# Molecular target: human ether-à-go-go-related gene (hERG) potassium channel (human, UniProt Q12809)
# Experiment: primary screen, population patch clamp on CHO cells stably expressing hERG
# Sequence of human ether-à-go-go-related gene (hERG) potassium channel (Q12809 whole entry, looked up): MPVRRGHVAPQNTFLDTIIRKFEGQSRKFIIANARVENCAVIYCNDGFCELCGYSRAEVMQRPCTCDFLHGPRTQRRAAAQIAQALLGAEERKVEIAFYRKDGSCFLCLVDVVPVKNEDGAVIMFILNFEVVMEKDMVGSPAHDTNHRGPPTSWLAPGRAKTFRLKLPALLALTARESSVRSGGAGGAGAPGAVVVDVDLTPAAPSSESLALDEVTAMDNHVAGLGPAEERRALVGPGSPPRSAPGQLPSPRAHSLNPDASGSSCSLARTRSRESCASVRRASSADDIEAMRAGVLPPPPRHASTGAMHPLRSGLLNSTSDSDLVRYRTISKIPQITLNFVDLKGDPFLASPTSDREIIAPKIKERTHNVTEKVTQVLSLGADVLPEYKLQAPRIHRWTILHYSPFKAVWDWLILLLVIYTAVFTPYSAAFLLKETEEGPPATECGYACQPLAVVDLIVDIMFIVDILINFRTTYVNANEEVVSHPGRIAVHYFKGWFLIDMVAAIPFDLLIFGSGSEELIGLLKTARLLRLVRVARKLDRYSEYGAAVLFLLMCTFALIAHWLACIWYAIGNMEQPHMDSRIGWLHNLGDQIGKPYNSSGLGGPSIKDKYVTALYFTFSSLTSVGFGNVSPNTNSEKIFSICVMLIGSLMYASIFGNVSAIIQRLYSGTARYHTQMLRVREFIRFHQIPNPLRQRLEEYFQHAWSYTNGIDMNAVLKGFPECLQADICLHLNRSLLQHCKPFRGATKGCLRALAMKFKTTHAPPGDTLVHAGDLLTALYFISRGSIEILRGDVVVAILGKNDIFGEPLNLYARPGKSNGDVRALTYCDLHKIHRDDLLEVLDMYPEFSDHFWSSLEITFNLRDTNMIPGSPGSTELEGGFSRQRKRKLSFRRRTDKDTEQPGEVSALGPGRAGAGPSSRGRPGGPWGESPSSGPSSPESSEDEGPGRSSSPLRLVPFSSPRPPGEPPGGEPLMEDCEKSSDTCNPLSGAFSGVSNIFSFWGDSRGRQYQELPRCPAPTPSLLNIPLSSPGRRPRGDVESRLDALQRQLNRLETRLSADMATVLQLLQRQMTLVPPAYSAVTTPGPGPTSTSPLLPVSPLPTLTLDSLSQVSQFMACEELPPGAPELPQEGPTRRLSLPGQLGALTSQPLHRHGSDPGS
row,Structure (SMILES),"hERG current change (%, negative = inhibition) at 1uM [%]"
1,COCCNC(=O)c1cc(S(=O)(=O)N(C)c2ccccc2OC)ccc1C,9.97
2,CCC(OC(=O)CCc1nc2ccccc2[nH]c1=O)C(=O)c1ccccc1 (centres unmarked),17.6
3,CCc1nnc(NC(=O)CSc2nc(-c3ccccc3)cc(-c3ccc(OC)cc3)c2C#N)s1,25
4,Cc1cc(C(=O)COC(=O)c2cccn2C)c(C)n1Cc1ccco1,10.6
5,CC(=O)c1c(C)[nH]c(C(=O)OCC(=O)NCCC2=CCCCC2)c1C,11.9
6,O=S(=O)(Nc1ccccc1)c1cccc2nonc12,17.4
7,O=C(c1ccc(OC2CCN(CCc3ccccc3)CC2)cc1)N1CCC(CO)CC1,15.4
8,O=S(=O)(Nc1ccccn1)c1ccc(Cl)c2ccccc12,9.64
9,COC(=O)c1ccccc1NC(=S)N1CCN(c2ccc(OC)cc2)CC1,14.9
10,CC(=O)c1ccc(NC(=O)C2CC(=O)Nc3nc4ccccc4n32)cc1 (centres unmarked),11.9
11,COc1ccnc(Oc2ccc(F)cc2)c1C(=O)N/C=N/OCc1c(Cl)cccc1Cl,3.34
12,CCc1ccc(N2C(=O)NC(=O)/C(=C/c3ccsc3)C2=O)cc1,12.4
13,N#CCC(=O)Nc1ccc(C(=O)OCC(=O)c2ccc3c(c2)OCCO3)cc1,8.35
14,CN1CCC(N(C)C(=O)COc2ccccc2-c2ccccc2)CC1.Cl,-10.5
15,CC1=CC(C)(C)N2C(=O)C3(NCCc4c3[nH]c3ccccc43)c3cccc1c32 (centres unmarked),30.2
16,COc1ccc(/C=N/NC(=O)Cn2nc(C)c([N+](=O)[O-])c2C)cc1,-1.96
17,CC(C)(C)n1nnnc1C(c1cccnc1)N1CCN(c2ccccn2)CC1 (centres unmarked),13
18,CC(=O)Nc1cccc(/C(C)=N/NC(=S)NC(C)C)c1,5.37
19,Cn1c(CNC(=O)C2CCCCC2)cc2cc(Cl)ccc21,8.7
20,O=C(c1ccc(Cl)cc1)N1CCN(C(=O)c2ccco2)CC1,-1.02
21,COc1cc(/C=N/NC(=S)Nc2cccc(C(=O)O)c2)cc(OC)c1OC,22.7
22,CCc1noc(C)c1C(=O)Nc1ccc(-c2nnc3n2CCCCC3)cc1,11.6
23,CC1CCCN(S(=O)(=O)c2ccc(C(=O)Nc3nnc(-c4ccccc4Cl)o3)cc2)C1 (centres unmarked),19.8

row,Structure (SMILES),"hERG current change (%, negative = inhibition) at 1uM [%]"
1,COC(=O)c1oc2ccc(Br)cc2c1NC(=O)c1ccccc1,11
2,NS(=O)(=O)c1ccc(NC(=O)c2ccc3nccnc3c2)cc1,8.42
3,COC(=O)c1c(NC(=O)CCC(=O)O)sc(Cc2ccccc2)c1C,8.48
4,O=C(c1ccccc1F)N(Cc1ccccc1)Cc1ccccc1,16.6
5,CCn1c(SCc2nc(-c3ccccc3)no2)nnc1-c1cccs1,3.84
6,CCN1C(=O)[C@H]2[C@@H](c3ccc(-c4cccc(Cl)c4)c(OC)c3)N[C@@](CC(C)C)(C(=O)OC)[C@H]2C1=O.O=C(O)C(F)(F)F,16.4
7,Cl.O=C(CN1CCCC1)N1c2ccccc2Sc2ccc(C(F)(F)F)cc21,13
8,COc1ccc(-n2nc3c(c2NC(=O)c2ccc4c(c2)OCO4)CS(=O)(=O)C3)cc1,12.3
9,O=C(NC12CC3CC(CC(C3)C1)C2)c1ccccc1O,5.33
10,C/C(N)=C(/C#N)C(=O)COC(=O)CCC1CCCC1,-1.84
11,Cc1cc(=O)[nH]c2c1cnn2C(C)c1ccccc1 (centres unmarked),19.6
12,COc1ccc(N2CCN(C(=O)c3ccc(C)c(NC(=O)c4ccco4)c3)CC2)cc1,-53.7
13,Cc1cccc(C)c1OCc1cc(C(=O)N2CCN(C3CCCC3)CC2)no1,-6.31
14,O=C(Nc1nnc(S(=O)(=O)N2CCOCC2)s1)c1ccccc1,8.42
15,CCN(CC)C(=O)N1CCN(c2c([N+](=O)[O-])c(=O)oc3ccccc23)CC1,-0.622
16,COc1ccc(CC(=O)Nc2ccc3c(C)cc(=O)oc3c2)cc1OC,13.6
17,Cc1ccc(NC(=O)CSc2nnc(-c3ccncc3)n2C)cc1C,17.3
18,COc1ccc(-c2nnnn2C(C)C)cc1,11.1
19,Cc1cc(C)n(-c2nnc(C)n2NC(=O)c2cccc(Cl)c2)n1,5.39
20,CN1CCc2c(sc3c2C(=O)NC(c2cn(Cc4ccccc4)c4ccccc24)N3)C1 (centres unmarked),-0.497
21,Cn1nnnc1Sc1ncnc2scc(-c3ccc(Cl)cc3)c12,10.9
22,COc1ccc(CNC(=O)COC(=O)c2cc(-c3cccs3)nc3ccccc23)cc1OC,18.5
23,Fc1ccc(N/N=C(/c2ccccc2)c2ccccn2)cc1,3.53

row,Structure (SMILES),"hERG current change (%, negative = inhibition) at 1uM [%]"
1,COc1ccc(CC(=O)OCC(=O)NCc2ccccc2Cl)cc1,14.8
2,O=C(Nc1nc(-c2ccc(Cl)cc2Cl)cs1)c1ccc(OCC2CCCO2)cc1 (centres unmarked),9.41
3,CCN1CCN(C(=O)c2ccc(CS(=O)(=O)Cc3ccccc3C)o2)CC1,17.2
4,COc1cc(C(=O)NC(=S)Nc2ccc3oc(=O)ccc3c2)cc(OC)c1OC,9.79
5,CC1(C(=O)NCCCN2CCOCC2)Oc2cccnc2NC1=O (centres unmarked),12.7
6,O=C(c1ccccn1)c1conc1C(=O)c1ccc(Br)cc1,-11.2
7,CCCCN(CCCC)C(=O)c1sc2nc(N3CCOCC3)c3c(c2c1N)CCCC3,7.71
8,C/C(=N\O)c1ccccc1C(=O)O,6.94
9,COc1ccccc1CC1S/C(=N/N=C/c2ccco2)NC1=O (centres unmarked),15
10,CNP1(NC)=Nc2nn(-c3ccccc3)c(N)c2C(c2ccccc2)=N1,13.5
11,CC1=CC(C)(C)NC(=O)N1c1ccc(C)cc1,5.77
12,O=C(c1cccs1)n1nc(-c2ccco2)nc1SCc1ccccc1,9.25
13,CC(=O)c1ccc(OCC(C)C)c(CC(C(N)=O)C(N)=O)c1,14.3
14,CCc1ccc(NC(=O)CNC(=O)Cn2ccc3ccccc3c2=O)cc1,14.8
15,Cc1cc(-c2ccccc2C(=O)NCc2ccccc2)on1,14.4
16,COc1cccc(-c2nc(CS(=O)(=O)CC(=O)NCc3ccc(Cl)cc3)c(C)o2)c1,9.11
17,COC(=O)C1C(C(=O)OC)C1(c1ccccc1)c1ccccc1 (centres unmarked),13.8
18,O=C(CSc1ccc(-c2cccs2)nn1)N1CCCCC1,8.19
19,Cn1c(SCC(=O)Nc2nc3ccccc3s2)nnc1-c1ccccc1,9.6
20,O=C(Nc1ccccc1F)Nc1cccnc1Cl,18.1
21,CCCC(=O)OCC(=O)NC1CCCc2ccccc21 (centres unmarked),14.4
22,CCn1c(C(C)C)n[nH]c1=S,15.5
23,CCc1cc2c(=O)[nH]cnc2s1,4.62

row,Structure (SMILES),"hERG current change (%, negative = inhibition) at 1uM [%]"
1,O=C1CSC(c2cn(-c3ccccc3)nc2-c2cc3ccccc3oc2=O)N1Cc1ccccc1 (centres unmarked),17.2
2,COC(=O)C1=C(c2ccc(F)cc2OCc2ccccc2)C[C@@H]2CC[C@H]1N2C(=O)NCc1ccc(N(C)C)cc1,12.2
3,Fc1cccc(CCN2CCNC[C@@H]2Cc2ccccc2)c1,14.6
4,CCc1cccc(NC(=O)CCc2c(C)nn(-c3ccc(N4CCOCC4)nn3)c2C)c1,-10.2
5,O=Cc1cccn1-c1nccc(-c2ccco2)n1,0.442
6,CC(C)CCNC(=O)NC(=O)COC(=O)CCN=C1NS(=O)(=O)c2ccccc21,10.4
7,COCCCN1C(=O)c2ccc(C(=O)N3CCN(c4ccc(OC)cc4)CC3)cc2C1=O,2.63
8,O=c1[nH]nc(CSCc2ccccc2Cl)[nH]1,11.6
9,COc1ccccc1N1CC(C(=O)Nc2cc(C(F)(F)F)ccc2N2CCCC2)CC1=O (centres unmarked),6.4
10,Cn1cccc1CC(=O)NNC(=S)NC(=O)c1ccccc1Br,15.5
11,CC(=O)Nc1ccc(Nc2c3c4c(cccc4n(C)c2=O)C(=O)c2ccccc2-3)cc1,10.6
12,COc1cccc(-c2onc3ccc(C(=O)/C=C/N(C)C)cc23)c1,10.2
13,CCOc1ccc(/C=C2\CCC(C3CCCC3)C2=O)cc1 (centres unmarked),15.4
14,C/C(=N\NC(=O)CN(c1ccc(Oc2ccccc2)cc1)S(C)(=O)=O)C(C)(C)C,12.8
15,Cc1csc(Nc2ccc(Cl)cc2)n1,6.43
16,N#Cc1nc(COc2ccccc2)oc1N1CCCC1,1.32
17,COc1cc2cc(CN(C(=O)NC3CCCCC3)C3CCCC3)c(=O)[nH]c2cc1OC,6.78
18,Cc1cc(Nc2cccc(F)c2)n2ncnc2n1,-0.775
19,CSC(=S)N/N=C/c1c[nH]c2ccccc12,12.7
20,COc1ccc(/C(O)=C2/C(=O)C(=O)N(CCN(C)C)C2c2ccc(F)cc2)cc1Cl (centres unmarked),11.7
